Measured values from PubChem BioAssay AID1745853 (National Center for Advancing Translational Sciences (NCATS), 2022).
Some of the results follow. Further columns of the screen follow, without active or inactive calls.

Legend:
Experiment in all cases: Primary Screen for Target Class Profiling of Small Molecule Inhibitors of Methyltransferases
[1] = molecular target: Glycine N-methyltransferase (Homo sapiens) (UniProt Q14749); conditions: purified enzyme, MTase-Glo SAH luminescence; measured here: GNMT inhibition; at 40 µM; stronger effect = lower value
Outline: (§1)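 Each enzyme was reacted with SAM and its substrate, with compounds tested once at 40 uM; SAH formed was read by MTase-Glo luminescence.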

[2] = molecular target: Guanidinoacetate N-methyltransferase (Homo sapiens) (UniProt Q14353); conditions: purified enzyme, MTase-Glo SAH luminescence; measured here: GAMT inhibition; at 40 µM; stronger effect = lower value
Outline: as §1

[3] = molecular target: Histamine N-methyltransferase (Homo sapiens) (UniProt P50135); conditions: purified enzyme, MTase-Glo SAH luminescence; measured here: HNMT inhibition; at 40 µM; stronger effect = lower value
Outline: as §1

[4] = molecular target: Nicotinamide N-methyltransferase (Homo sapiens) (UniProt P40261); conditions: purified enzyme, MTase-Glo SAH luminescence; measured here: NNMT inhibition; at 40 µM; stronger effect = lower value
Outline: as §1

[5] = molecular target: Phenylethanolamine N-methyltransferase (Homo sapiens) (UniProt P11086); conditions: purified enzyme, MTase-Glo SAH luminescence; measured here: PNMT inhibition; at 40 µM; stronger effect = lower value
Outline: as §1
% is scaled to controls: 0 for no effect and ±100 for the full control effect.

Compound	activity change, negative = inhibition [1] [%]	activity change, negative = inhibition [2] [%]	activity change, negative = inhibition [3] [%]	activity change, negative = inhibition [4] [%]	activity change, negative = inhibition [5] [%]
CCCn1c(=O)c2ccccc2n2c(SCC(=O)Nc3ccc(F)cc3)nnc12	-5.67	5.84	2.62	0.316	0.479
CCN(CC)c1nc2c(-c3ccc(Cl)cc3)nnn2c2ccccc12	-5.21	-2.99	-1.51	0.64	-6.09
CC1CCCCN1CCN1C(=O)c2ccc(-c3ccco3)n2CC1(C)C(=O)NC1CCCC1 (configuration not stated)	8.19	2.94	7.55	13.6	3.57
NC(=O)[C@@H](Cc1c[nH]c2ccccc12)NC(=O)[C@H]1CN(C(=O)C2CCNCC2)CCN1C(=O)N1CCOCC1	-6.3	-5.7	-1.31	-6.26	-2.12
COc1nc2nc(CC3CC3)n(C)c2cc1-c1ccc(O)c(F)c1	-33.3	-8.65	-9.44	-43.4	-8.54
Cn1c(=O)c2ccc(C(=O)NC3CCCC3)cc2n2c(SCc3ccccc3Cl)nnc12	-2.62	0	6.32	8.29	0.473
COCCNCc1ccc(-c2cc3nccc(Oc4ccc(NC(=S)NC(=O)Cc5ccc(F)cc5)cc4F)c3s2)nc1	-8.98	-3.75	0.462	-19	0.61
C[C@]1(CO)C2CC[C@@H](O)[C@@H](CC(=O)N3CCC[C@H]3CO)[C@]2(C)CC[C@H]1OC(=O)Nc1cccc(F)c1 (some centres not stated)	-2.17	-0.993	0.366	-4.98	1.31
CN1C(=O)c2cc(C(=O)NCc3ccccn3)nn2CC1(C)C(=O)NCc1ccc(F)cc1 (configuration not stated)	5.15	0	7.64	4.64	4.79
COc1ccc(C(=O)N2CCN(c3cc(-c4cccs4)[nH]n3)CC2)cc1OC	-12.5	-8.46	-4.72	-28.4	-6.63
CC(N)C(=O)OC(C)(C)Cc1ccc(Cl)cc1 (configuration not stated)	5.78	12.8	1.51	-2.04	8.79
C=Cc1ccc(Cn2nc3n(C(C)C)c(=O)c4ccc(C(=O)NC(C)C)cc4n3c2=O)cc1	1.4	0	6.17	2.35	6.79
COc1ccc(NC(=O)CCc2nnc3n(Cc4ccccc4Cl)c(=O)c4ccccc4n23)cc1	4.88	1.6	3.8	3.23	-0.232
CC(=O)NC(Cc1c[nH]c2ccccc(=O)c12)C(=O)O (configuration not stated)	1.41	2.86	-21.1	-10.2	-3.25
CCc1cccc(N2C(=O)CSc3c(c4ccccc4n3C)C2C(=O)NCCC(C)C)c1 (configuration not stated)	9.88	0	1.62	4.22	5.63
COc1ccc(S(=O)(=O)NCCNc2cc(C)nc3ccnn23)cc1	-4.26	-5.5	-0.865	-6.97	-3.56
CC(NC(=O)Cc1cc(F)cc(F)c1)C(=O)NC1C(=O)N(C)c2ccccc2-c2ccccc21 (configuration not stated)	-8.96	–	-10.3	–	–
CCC(C)NC(=O)c1ccc2c(=O)n(CC(C)C)c3nn(CC(=O)Nc4ccc(C)c(C)c4)c(=O)n3c2c1 (configuration not stated)	3.17	0	4.82	4.43	3.92
O=C(OCc1cccc(O)c1O[C@@H]1O[C@H](CO)[C@@H](O)[C@H](O)[C@H]1O)C1(O)C(=O)C2C=CC1C1C=CC(=O)C(O)(C(=O)OCc3cccc(O)c3O[C@@H]3O[C@H](CO)[C@@H](O)[C@H](O)[C@H]3O)C21 (some centres not stated)	4.91	4.3	9.03	-6.15	5.96
OC[C@H]1O[C@@H](Oc2ccc3c(c2)OC[C@H]2c4cc5c(cc4O[C@@H]32)OCO5)[C@H](O)[C@@H](O)[C@@H]1O	4.83	-0.058	6.08	-7.88	1.36
Cc1ccc(NC(=O)c2cc3n(n2)CC(C)(C(=O)NC2CCCCCC2)N(C)C3=O)cc1C (configuration not stated)	0.293	4.92	0.625	-0.709	-0.009
Cc1ccc(CCNC(=O)c2ncn3c2C(=O)N(C2CC2)C(C)(C(=O)NCc2ccc(C)cc2)C3)cc1 (configuration not stated)	2.7	8.65	5.72	0.465	0.943
C[S+](=O)([O-])N1CC2(Cc3ccccc31)CN(C(=O)NC1CCCC1)C2	0.268	-2.88	2.87	-3.85	2.24
COc1ccc(CCN2C(=O)c3cc4occc4n3CC2(C)C(=O)NC2CCCCC2C)cc1OC (configuration not stated)	0.221	0.263	-0.366	-24.1	-1.89
Cc1cn2c(n1)Cc1ccc(Cl)cc1C(c1ccc(N)cc1)=N2	-4.84	-8.84	-5.94	-44	-7.85
CCCn1c(=O)c2cc(Cl)ccc2n2c(=O)n(Cc3ccc(F)cc3)nc12	6.66	0	12.4	3.81	5.65
CCC(C)NC(=O)N1CC(c2nc(CCOCC3CCOCC3)no2)C1 (configuration not stated)	-4.77	-8.49	-3.34	-16.8	-15.2
C=C1C(=O)O[C@@H]2[C@H]3O[C@]3(C)CCC=C(C)CC[C@@H]12	-12.9	6.14	1.21	-5.06	4.13
